Source: the supplement of paper PMC12217912
Some of the results follow. The full chains were built here from the parent and the listed change. Inactive controls read about 0.05.

B1: TEV protease; numbered along this chain (parent)
chain: MGESLFKGPRDYNPISSSICHLTNESDGHTTSLYGIGFGPFIITNKHLFRRNNGTLVVQSLHGVFKVKDTTTLQQHLVDGRDMIIIRMPKDFPPFPQKLKFREPQREERICLVTTNFQTKSMSSMVSDTSCTFPSGDGIFWKHWIQTKDGQCGSPLVSTRDGFIVGIHSASNFTNTNNYFTSVPKNFMELLTNQEAQQWVSGWRLNADSVLWGGHKVFMVKPEEPFQPVKEATQL

Variants of: B1
Test: raw area under fraction-flipped curve 0-4 h after induction (AUC4h, not background-subtracted), DNA-recorder readout of cleavage of the substrate (dimensionless); higher = more cleavage of the substrate by the protease variant
Conditions: temperature: 34 °C; time window: 0-4 h after rhamnose induction
Method: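 In vivo DNA recorder in E. coli TOP10(DE3) ΔrhaA at 34 °C. Each TEVp single-site mutant (parent TEVp 0) is paired with a single-site variant of the 7-mer TEVs (canonical ENLYFQ|S). The substrate sits between flexible linkers in a Bxb1-sfGFP-TEVs-SsrA fusion, so cleavage stabilises Bxb1 and speeds flipping of a recombination array, read by NGS. The value is the raw area under the fraction-flipped curve over 0-4 h after rhamnose induction (AUC4h), with ≥20 reads per time point. It is not background-subtracted; inactive controls average about 0.047.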
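Also: Bxb1 expression induced with 0.2% (w/v) L-rhamnose at OD600 near 0.5, cultures sampled hourly, flipped fraction per protease–substrate barcode pair counted by paired-end Illumina sequencing.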

Row | Variant | area with substrate ENLYAQS | area with substrate ENLYDQS | area with substrate ENLYEQS | area with substrate ENLYGQS | area with substrate ENLYHQS | area with substrate ENLYIQS | area with substrate ENLYLQS | area with substrate ENLYMQS | area with substrate ENLYNQS | area with substrate ENLYQQS | area with substrate ENLYSQS | area with substrate ENLYVQS | area with substrate ENLYPQS | area with substrate ENLYRQS | area with substrate ENLYWQS | area with substrate ENLYKQS | area with substrate ENLYTQS | area with substrate ENLYYQS | area with substrate ENLYCQS
1 | S4F | 0.0896 | 0.0584 | 0.0722 | 0.0753 | 0.0722 | 0.157 | 0.121 | 0.106 | 0.094 | 0.0922 | 0.104 | 0.163 |  |  |  |  |  |  | 
2 | F6R | 0.0661 | 0.0758 | 0.0945 | 0.0367 | 0.0701 | 0.113 |  | 0.0472 |  | 0.0862 |  |  | 0.0669 | 0.0653 | 0.09 |  |  |  | 
3 | K7I | 0.0441 | 0.062 | 0.024 | 0.0482 |  | 0.0775 |  |  |  |  | 0.0717 | 0.0692 | 0.0541 | 0.0577 | 0.0611 | 0.0671 |  |  | 
4 | K7P | 0.0763 | 0.0576 | 0.0826 | 0.0305 |  | 0.0743 | 0.0889 | 0.0576 |  |  |  |  | 0.0676 | 0.0623 | 0.069 | 0.0707 | 0.0999 |  | 
5 | P9H | 0.111 | 0.0639 | 0.0685 | 0.081 | 0.095 | 0.128 |  |  | 0.0628 |  | 0.0813 | 0.14 |  | 0.0684 | 0.0923 | 0.134 |  | 0.0639 | 
6 | P14Q | 0.0952 | 0.0288 | 0.121 |  | 0.0682 | 0.114 |  | 0.0854 | 0.0693 |  | 0.0798 | 0.115 | 0.0649 |  | 0.0993 | 0.0674 | 0.0757 | 0.0688 | 0.106
7 | P14V | 0.0731 | 0.0669 | 0.0953 | 0.0589 | 0.0634 | 0.105 |  | 0.0754 | 0.0743 | 0.0687 | 0.0853 | 0.0991 | 0.0747 | 0.0621 | 0.058 | 0.0577 |  | 0.0743 | 0.078
8 | S16P | 0.0625 |  | 0.0645 |  | 0.07 | 0.143 | 0.101 | 0.0868 | 0.0736 | 0.0673 |  | 0.0969 | 0.0707 | 0.057 |  | 0.0561 | 0.081 | 0.0656 | 0.0861
9 | C20K | 0.0436 | 0.0514 | 0.049 | 0.064 | 0.0481 | 0.0446 |  | 0.0455 | 0.05 | 0.0311 | 0.0486 | 0.0513 | 0.0528 | 0.0504 | 0.0438 | 0.0382 | 0.0418 | 0.0479 | 0.0338
10 | S26M | 0.0687 | 0.0656 | 0.0601 | 0.058 | 0.0585 |  | 0.06 | 0.0861 | 0.0563 | 0.0702 | 0.0455 | 0.0545 | 0.0676 | 0.0545 | 0.0604 | 0.0263 |  | 0.0502 | 0.073
11 | D27Y | 0.0617 | 0.0588 | 0.0578 | 0.0555 | 0.0609 | 0.097 | 0.0562 | 0.0744 | 0.0689 | 0.0625 | 0.0742 | 0.0973 | 0.0556 | 0.0658 | 0.0778 | 0.0622 | 0.0675 |  | 0.0826
12 | T30A | 0.0622 |  | 0.0777 | 0.0847 | 0.0626 | 0.115 |  | 0.0869 | 0.0737 |  | 0.0728 | 0.107 | 0.0629 | 0.0527 | 0.0851 | 0.0559 | 0.0967 | 0.0854 | 0.0992
13 | T31H | 0.0695 | 0.0653 | 0.0363 | 0.0769 | 0.0469 | 0.103 |  | 0.0716 | 0.061 | 0.0681 | 0.0668 | 0.104 |  |  | 0.062 | 0.0691 | 0.0767 |  | 
14 | L33C | 0.0699 | 0.0555 | 0.0658 |  | 0.0591 | 0.0705 |  | 0.0698 | 0.0648 | 0.0649 | 0.081 | 0.0857 | 0.0838 |  |  | 0.0544 | 0.0697 |  | 
15 | L33E | 0.0748 | 0.0664 | 0.0537 | 0.0571 | 0.0655 | 0.0828 |  | 0.066 | 0.0646 | 0.0648 |  | 0.0593 | 0.0695 | 0.0536 | 0.0549 |  | 0.0694 |  | 
16 | Y34E | 0.0545 | 0.0533 | 0.0597 |  |  |  |  | 0.0753 | 0.0665 |  | 0.0722 |  | 0.059 |  |  |  |  | 0.0604 | 
17 | F41K | 0.0271 | 0.0535 | 0.0556 |  | 0.0631 | 0.0993 |  | 0.0516 | 0.0535 | 0.0571 | 0.0538 | 0.0543 |  | 0.053 | 0.0467 | 0.049 | 0.0303 |  | 
18 | F41R | 0.0553 | 0.0497 | 0.0567 | 0.0631 | 0.0448 | 0.0583 | 0.0505 |  | 0.0494 | 0.062 |  | 0.0653 | 0.0484 | 0.0555 | 0.0554 | 0.0531 |  |  | 
19 | I42E | 0.0427 | 0.0447 | 0.0472 | 0.0361 |  |  |  | 0.0429 | 0.0437 | 0.0371 |  |  | 0.0554 | 0.025 | 0.0623 | 0.042 | 0.0436 |  | 0.0415
20 | I42M | 0.0643 | 0.0535 | 0.0635 | 0.0657 | 0.0649 | 0.118 |  | 0.0818 |  | 0.0833 |  | 0.138 | 0.0733 |  |  | 0.0575 | 0.0749 |  | 0.0923
21 | I42P | 0.0654 | 0.0354 | 0.0499 | 0.0379 | 0.0467 | 0.0478 |  |  | 0.0423 | 0.0428 | 0.043 | 0.0564 | 0.0402 |  | 0.0503 | 0.0294 | 0.0445 |  | 0.0635
22 | I43M | 0.0721 | 0.0643 | 0.0626 | 0.0645 | 0.0532 |  | 0.066 |  | 0.0546 | 0.0621 | 0.0695 | 0.0904 | 0.0629 | 0.0679 | 0.0699 | 0.0554 | 0.0544 |  | 
23 | T44V | 0.0591 | 0.0645 | 0.0525 |  | 0.059 | 0.0728 | 0.0595 | 0.0659 | 0.0485 | 0.0516 | 0.0695 | 0.0736 | 0.0939 | 0.0457 | 0.073 |  | 0.0829 |  | 
24 | K46D | 0.0719 | 0.0528 |  | 0.0535 | 0.05 | 0.0953 | 0.0769 | 0.062 | 0.0594 | 0.0668 | 0.0611 | 0.0541 |  | 0.0586 |  | 0.0843 |  | 0.0614 | 
25 | F49E | 0.0519 | 0.0444 | 0.0568 | 0.0548 | 0.0435 | 0.0518 |  | 0.0535 | 0.0574 | 0.0534 | 0.0498 |  | 0.0535 |  | 0.057 | 0.0416 |  | 0.0608 | 0.0567
